“And” between values parts separate entries of the source, which are not always exact repeats. Equal entries are not always repeated.
Details: Homo sapiens, pH 7.3, Thermal, sodium phosphate 25 mM, transition: 2, reversible: yes

Fibroblast growth factor 1 wild type (sequence not shown)
unfolding enthalpy (calorimetric) (CD): 64.9 kcal/mol and 67.7 kcal/mol and 67.6 kcal/mol | Tm (fluorescence): 39.8 °C | unfolding enthalpy (calorimetric) (fluorescence): 66.2 kcal/mol

— FireProtDB (doi:10.1074/jbc.m109.001289)
